Experimental data: article PMC4336329 (PLoS ONE, 2015)
Out of some 310,000 compounds screened, about 2,200 (0.71%) showed an effect of 50% or more. Effects have a minus sign here. Some of the results follow.

What follows are molecules tested against human ether-à-go-go-related gene (hERG) potassium channel (human, UniProt Q12809) (assay: primary screen, population patch clamp on CHO cells stably expressing hERG).
human ether-à-go-go-related gene (hERG) potassium channel, sequence (Q12809 whole entry, looked up): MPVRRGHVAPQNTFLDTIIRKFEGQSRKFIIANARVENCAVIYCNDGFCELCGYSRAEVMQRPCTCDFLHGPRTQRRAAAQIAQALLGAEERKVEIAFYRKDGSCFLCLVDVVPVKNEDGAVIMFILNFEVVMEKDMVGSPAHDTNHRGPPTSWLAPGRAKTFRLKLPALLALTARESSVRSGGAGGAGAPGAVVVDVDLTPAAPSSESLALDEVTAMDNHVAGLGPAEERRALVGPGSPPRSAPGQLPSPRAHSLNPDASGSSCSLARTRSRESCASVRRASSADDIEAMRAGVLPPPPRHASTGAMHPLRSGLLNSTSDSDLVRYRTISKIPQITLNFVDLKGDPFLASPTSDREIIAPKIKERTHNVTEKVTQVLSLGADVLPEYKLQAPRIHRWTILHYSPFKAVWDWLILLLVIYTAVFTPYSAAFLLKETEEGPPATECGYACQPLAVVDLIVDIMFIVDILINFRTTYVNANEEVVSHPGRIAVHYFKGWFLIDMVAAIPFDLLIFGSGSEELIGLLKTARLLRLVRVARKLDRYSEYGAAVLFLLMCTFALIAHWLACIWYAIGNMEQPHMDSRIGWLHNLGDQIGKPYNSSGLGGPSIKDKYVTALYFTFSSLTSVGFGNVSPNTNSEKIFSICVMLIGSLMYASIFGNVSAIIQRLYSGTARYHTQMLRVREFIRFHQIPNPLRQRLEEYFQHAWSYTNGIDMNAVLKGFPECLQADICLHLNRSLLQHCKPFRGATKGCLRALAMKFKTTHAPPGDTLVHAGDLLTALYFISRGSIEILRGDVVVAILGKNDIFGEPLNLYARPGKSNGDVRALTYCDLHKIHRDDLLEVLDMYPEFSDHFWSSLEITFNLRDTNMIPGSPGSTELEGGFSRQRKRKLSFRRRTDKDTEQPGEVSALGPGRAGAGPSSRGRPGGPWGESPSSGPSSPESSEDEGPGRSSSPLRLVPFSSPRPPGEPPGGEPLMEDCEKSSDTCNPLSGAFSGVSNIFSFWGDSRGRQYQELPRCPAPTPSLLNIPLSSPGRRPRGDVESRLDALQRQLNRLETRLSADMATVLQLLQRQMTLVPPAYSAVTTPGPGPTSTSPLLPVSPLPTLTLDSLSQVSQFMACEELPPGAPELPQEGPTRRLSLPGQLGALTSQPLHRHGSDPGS

SMILES	hERG current change (%, negative = inhibition) at 1uM [%]
COc1ccc(CNC(=O)C(c2ccco2)N(C(=O)c2csnn2)c2cccc(C)c2C)cc1 (stereo not drawn)	-1.31
Cc1ccc(CNc2ccc3c(c2)ncn3C)cc1	-11.5
O=C(Oc1ccccc1Cl)c1ccccc1P(=O)(O)O	8.26
COc1ccc2oc(C(=O)N3CCN(c4ncccn4)CC3)c(C)c2c1	3.98
CC[n+]1oc(-c2ccccc2)cc1C.F[B-](F)(F)F	14
O=C(c1ccccc1)c1ccc2c(c1)OCCOCCOCCOCCO2	-22.4
CCOc1ccc(-n2c(=S)sc3c(=O)n(-c4ccc(F)cc4)c(SCC(=O)O)nc32)cc1	10
COc1ccc(C(=O)Nc2ncc(C)s2)cc1S(=O)(=O)N1CCCC1	8.61
O=C(CCCn1c(=O)[nH]c2ccccc2c1=O)Nc1ccc(F)cc1	-2
O=C(CSc1nc2ccccc2[nH]1)Nc1nc(-c2ccc(Br)cc2)cs1	19.2
COc1ccccc1N1CCN(S(=O)(=O)CCNC(=O)CCCc2ccccc2)CC1	7.98
COc1ccc(NC(=O)c2cc(-c3ccccn3)nc3ccccc23)cc1S(=O)(=O)N(C)C	5.14
CC(=O)Nc1ccc(NC(=O)Cn2c(=O)n(-c3ccc(C)cc3)c(=O)c3oc4ccccc4c32)cc1	3.22
O=C(Oc1ccc2cc(Br)ccc2c1)c1cccnc1	12.3
COc1ccc(C)cc1NC(=O)CCS(=O)(=O)c1cc2c(cc1Cl)NC(=O)CO2	4.08
COc1ccc(N2CCN(C(=O)Cn3cncn3)CC2)cc1	14
O=C(NC1CCCC1)C(=O)N(Cc1cccnc1)C(C(=O)NCC1CCCO1)c1ccco1 (stereo not drawn)	12.4
Cn1cccc1C(NC(=O)c1ccccc1)C(Cl)(Cl)Cl (stereo not drawn)	13.6
Cc1cccc(CS(=O)(=O)c2ncc(Cl)c(C(=O)NCc3ccc4c(c3)OCO4)n2)c1	4.95
COc1ccc(C(=O)N2CCCC2)cc1S(=O)(=O)N1CCC(C)CC1	11.5
COc1cc(NC(=S)NCCCN2CCOCC2)c(OC)cc1Cl	1.07
CCN1CCc2nc(NC(=O)c3cc(F)c(F)cc3Cl)sc2C1	4.07

SMILES	hERG current change (%, negative = inhibition) at 1uM [%]
O=C(O)COCC(=O)Nc1ccc(-n2nc(C(F)(F)F)cc2-c2cccs2)cc1	18.2
Cc1cc(-c2ccccc2)nc(N(C)NC(=O)c2c(F)cccc2F)c1S(C)(=O)=O	4.4
CCCC(=O)Nc1ccc(N2CCN(C(=O)CCC)CC2)cc1	2.06
Cc1cccc(-c2noc(-c3ccc4c(c3)OCO4)n2)c1	11.7
Cl.O=S1(=O)CCC(NC2CCCC2)C1 (stereo not drawn)	4.83
c1ccc(-c2nc3nc4ccccc4nc3n2CC2CCCO2)cc1 (stereo not drawn)	10.4
COc1cc(/C=C/c2ccc3cccc([N+](=O)[O-])c3n2)ccc1OCC#N	5.85
CC(=O)C1=C(C)NC(=O)NC1c1ccccc1OCC(=O)NCCc1ccccc1 (stereo not drawn)	-0.236
COC(=O)CS(=O)(=O)c1ccsc1C(=O)Nc1ccc(F)c(F)c1	19.1
CCOC(=O)c1c(NC(=O)CN2C(=O)NC3(CCC(C)CC3)C2=O)sc(C(=O)N(C)C)c1C (stereo not drawn)	6.86
COc1cccc(OC)c1C(=O)Nc1nc2ccc([N+](=O)[O-])cc2s1	16.1
Cc1ccc(C(O)(COC(=O)C(C)C)COC(=O)C(C)C)c(O)c1	11.5
O=C(COc1ccc2c3c(c(=O)oc2c1)CCC3)c1ccc2c(c1)OCO2	5.27
COc1ccc(OC)c(Cc2nnc(CCC(=O)NCc3ccc(C)s3)o2)c1	9.25
CCOC(=O)C1CCN(C(=O)c2cccnc2Oc2ccccc2)CC1	13.2
CCCCN(C(=O)c1ccc(N2CCCC2=O)cc1)c1c(N)n(CC(C)C)c(=O)[nH]c1=O	0.354
COc1ccc(OC)c(S(=O)(=O)NCCS(=O)(=O)N2CCN(c3ccccc3)CC2)c1	13.3
CCOc1nc(-c2ccc(Cl)cc2Cl)ccc1C#N	-3.96
O=C(CN1C(=O)/C(=C/c2cccc(Br)c2)SC1=S)NC1=NCCS1	15.1
Cc1cccc(NC(=O)CSc2ccc(-c3cccs3)nn2)c1C	0.51
CCOc1cc(-c2sc(Nc3ccc(CC)cc3)n[n+]2-c2ccccc2)ccc1OC.[Cl-]	-30.9
Cn1ncc(C(=O)Nc2ccc(Cl)cc2)c1C(F)(F)F	7.94

SMILES	hERG current change (%, negative = inhibition) at 1uM [%]
CCC(=O)N=c1n(C)c2ccccc2n1CCOc1ccccc1	6.96
CC12CCC(=O)N1C(C(=O)Nc1ccccc1N1CCCCC1)CS2 (stereo not drawn)	5.87
CCOC(=O)CNc1nc(Cl)c(C#N)s1	5.12
COc1ccc(S(=O)(=O)N2CCC(C(=O)N[C@@H](C)C(=O)NCc3ccncc3)CC2)cc1	16.4
Nc1cc(-c2ccc(Br)cc2)[nH]n1	8.69
COc1ccccc1C(=O)Nc1cccc2nc(C)ccc12	15.3
c1ccc(Sc2ncnc3ccccc23)cc1	9.63
O=C(/C=C/c1ccccc1)c1ccccc1O	8.85
Cc1ccccc1Nc1nc(N)nc(CSc2nnnn2-c2ccccc2)n1	7.2
N#Cc1ccc(Oc2ccc(-c3cnc4ccccc4n3)cc2)cc1C#N	10.8
Cc1cc(C)n2c(SCC(=O)Nc3ccccc3C#N)nnc2n1	9.36
C=CCn1c(SCC(=O)O)nnc1-c1cccc(Cl)c1	6.86
COC(=O)C1CN(S(=O)(=O)c2ccc(C)cc2)CCN1S(=O)(=O)c1ccc(C)cc1 (stereo not drawn)	13.5
O=C(CNC(=O)c1cncc(Br)c1)Nc1ccc(F)c(F)c1F	8.16
NC1=NC[C@H](Cc2ccccc2)N1CCCCC1CCCCC1	6.23
O=C(CCS(=O)(=O)Cc1ccccc1)NCc1ccco1	11.1
COc1ccc(C(=O)c2cn[nH]c2-c2ccc(C)cc2O)cc1	13.5
Cc1ccc(NC(=O)[C@H](C)NC(=O)C2CCN(C(=O)[C@@H](NC(=O)OC(C)(C)C)C(C)C)CC2)cc1	10.4
[O-][n+]1onc2c1CCc1c-2nn(-c2ccccc2Cl)[n+]1[O-]	1.46
O=C(CN1C(=O)C(=O)N(Cc2ccccc2)C1=O)c1ccc[nH]1	5.32
COc1ccc(C2N(C(=O)c3ccccc3)CCN2C(=O)c2ccccc2)cc1	-0.273
CCOc1cc(S(=O)(=O)N2CCCCCC2)ccc1F	-10.4

SMILES	hERG current change (%, negative = inhibition) at 1uM [%]
O=C(CCCn1c(=O)c2sccc2n(Cc2cc(=O)n3ccccc3n2)c1=O)NCc1ccco1	17.3
CCOC(=O)Cn1c(=NC(=O)c2sc3ccccc3c2Cl)sc2cc(S(N)(=O)=O)ccc21	10.9
O=C(c1ccc(COc2ccc3ccccc3c2)o1)N1N=C(C(F)F)CC1(O)C(F)F (stereo not drawn)	1.39
Cn1c(CNC(=O)c2ccc(F)cc2)cc2ccccc21	14.5
CCC(C)NC(=O)C1CCN(S(=O)(=O)N2CCOCC2)CC1 (stereo not drawn)	16.6
CCCCNC(=O)c1ccc2c(=O)n(CCCOCC)c(=S)[nH]c2c1	-6.49
CN1N=C(c2ccc(Cl)cc2)CC(c2ccc(Cl)cc2)C1=O (stereo not drawn)	7.55
COC(=O)[C@@H](NC(=O)N1CCC(Cc2ccccc2)CC1)C(C)C	13.8
CCCCn1nc(C(=O)OCC(=O)Nc2sccc2C(N)=O)c2ccccc2c1=O	9.45
Cc1ccc(C(=O)NC2CC3CCC(C2)N3Cc2ccco2)cc1 (stereo not drawn)	-7.72
COc1ccc(-c2cn(Cc3ccc(C(N)=O)cc3)c(-c3ccncc3)n2)cc1	0.402
CC(=O)N(c1ccc2oc(=O)sc2c1)S(=O)(=O)c1ccc(C(=O)O)cc1	13.7
NC(=O)c1ccc(NC(=O)COC(=O)c2ccc(Br)o2)cc1	1.35
O=C(OCC(=O)N1CCCCCC1)c1ccc(S(=O)(=O)N2CCOCC2)cc1	13.3
Cc1ccc(NC(=O)Nc2ccccc2C(N)=O)cc1	15.6
Cc1cccc(OCC(=O)NCC(=O)N/N=C/c2cc(Br)ccc2OCc2ccccc2)c1	7.06
Cc1nn(CC(=O)O)c(C)c1NC(=O)c1cccs1	21.2
COc1ccc(C(=O)N2CCCC(Nc3ccc(C)c(C)c3)C2)c(OC)n1 (stereo not drawn)	6.96
CC(C)c1ccc(NC(=S)Nc2ccc3[nH]c(=O)[nH]c3c2)cc1	13.3
COC(=O)Cc1ccc(NC(=S)N2CCN(C(=O)C3CCCO3)CC2)cc1 (stereo not drawn)	5.7
O=C(NCCN1CCOCC1)c1ccc(Cl)c(S(=O)(=O)N2CCCCC2)c1	10.8
